IC50 data for two compounds are collected here from patent US5034409A, “Pyrrole carboxylic acids and esters for blood platelet aggregation inhibition” (Bristol-Myers Squibb Company, priority 1990, dated 1991).

Values after ≈ are worked out from the molar mass of the structure shown.

For this assay, the system named is ADP-induced human platelet aggregation. Format: cell-based. Conditions: human platelet rich plasma, compounds in DMSO, read-out: Inhibition of Human Platelet Aggregation IC50 vs. ADP.

What is called IC50 is the concentration at which inhibition is half-maximal. With `COC(=O)CCCCCCCCn1cc(-c2ccccc2)c(-c2ccccc2)c1` [Example 1, Methyl 3,4-diphenyl-1H-pyrrole-1-nonanoate], the IC50 was determined as 32 µg/mL (≈ 82.1 µM). As to `O=C(O)CCCCCCCCn1cc(-c2ccccc2)c(-c2ccccc2)c1` [Example 2, 3,4-Diphenyl-lH-pyrrole-1-nonanoic Acid], the IC50 stood at 4 µg/mL (≈ 10.7 µM).
